For assay [1], the target named is His6-Cbk1(251-756, D475A) (S. cerevisiae) (UniProt P53894). Description: tandem affinity co-purification; His6-Cbk1(251-756, D475A) and GST-Mob2 coexpressed in E. coli from a bicistronic system; Ni-NTA resin followed by glutathione-Sepharose 4B.
In assay [2] the target is T1, Hym1 fused to the GAL4 DNA-binding domain (S. cerevisiae) (UniProt P32464).
T1 sequence: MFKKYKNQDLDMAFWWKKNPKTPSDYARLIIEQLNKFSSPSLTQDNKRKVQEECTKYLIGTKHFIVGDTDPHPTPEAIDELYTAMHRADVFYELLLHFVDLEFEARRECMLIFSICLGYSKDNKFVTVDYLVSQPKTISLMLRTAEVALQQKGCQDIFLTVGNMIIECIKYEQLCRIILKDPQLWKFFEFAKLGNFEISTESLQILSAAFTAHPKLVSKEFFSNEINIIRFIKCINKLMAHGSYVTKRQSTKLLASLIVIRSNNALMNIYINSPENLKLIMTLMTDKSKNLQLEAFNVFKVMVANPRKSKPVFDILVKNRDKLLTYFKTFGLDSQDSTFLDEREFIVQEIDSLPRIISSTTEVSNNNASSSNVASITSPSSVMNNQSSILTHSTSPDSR
Description: two-hybrid; yeast two-hybrid; Kic1 alleles in pGAD-C1 (GAL4 activation domain), Hym1 in pGBD-C1 (GAL4 DNA-binding domain), coexpressed; prey or bait alone as negative controls.

Chains of the proteins cited; added tags and fusions are not shown. Lines headed by an entry give the natural chain unless they say otherwise; changes in a name come on top. A line that says so, or that is headed by a name, gives the form on record, which may keep a tag or linker.
His6-Cbk1(251-756, D475A) (P53894, form named): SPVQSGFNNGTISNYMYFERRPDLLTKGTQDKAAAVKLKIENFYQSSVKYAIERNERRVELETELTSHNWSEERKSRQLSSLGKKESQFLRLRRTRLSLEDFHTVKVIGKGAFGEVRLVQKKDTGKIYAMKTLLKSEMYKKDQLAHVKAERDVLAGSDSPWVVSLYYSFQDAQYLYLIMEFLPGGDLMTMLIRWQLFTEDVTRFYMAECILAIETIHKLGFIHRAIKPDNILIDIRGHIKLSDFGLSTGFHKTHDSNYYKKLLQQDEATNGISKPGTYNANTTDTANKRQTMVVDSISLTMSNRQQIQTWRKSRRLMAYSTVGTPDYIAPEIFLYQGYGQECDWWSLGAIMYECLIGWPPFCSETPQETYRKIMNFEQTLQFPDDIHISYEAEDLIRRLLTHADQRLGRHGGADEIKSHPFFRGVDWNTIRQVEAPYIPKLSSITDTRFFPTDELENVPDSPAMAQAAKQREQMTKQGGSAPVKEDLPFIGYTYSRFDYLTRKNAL

The target in assay [3] is T2, Hym1-13myc (S. cerevisiae) (UniProt P32464).
T2 sequence: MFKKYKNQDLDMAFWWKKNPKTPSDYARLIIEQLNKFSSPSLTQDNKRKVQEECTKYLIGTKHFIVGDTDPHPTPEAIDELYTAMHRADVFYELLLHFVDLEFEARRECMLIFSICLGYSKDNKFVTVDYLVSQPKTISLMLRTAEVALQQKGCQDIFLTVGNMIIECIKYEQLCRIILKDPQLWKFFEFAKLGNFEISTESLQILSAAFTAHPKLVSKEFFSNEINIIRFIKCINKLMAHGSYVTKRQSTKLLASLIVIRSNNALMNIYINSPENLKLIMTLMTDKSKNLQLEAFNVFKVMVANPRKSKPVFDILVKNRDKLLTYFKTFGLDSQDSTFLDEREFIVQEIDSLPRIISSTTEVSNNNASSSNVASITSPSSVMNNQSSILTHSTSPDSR
Description: co-IP; yeast cell lysates (bead beating) of strains with both tagged proteins; Hym1-myc immunoprecipitated with anti-c-Myc 9E10 on Dynabeads Protein G, Kic1-HA detected by anti-HA blot; also at 10 min intervals after release from GAL-CDC20 arrest.

Assay [4] addresses T2, Hym1-13myc (S. cerevisiae). In words: co-IP; lysates of cells expressing either Kic1-3HA or Hym1-13myc prepared separately, then mixed; Hym1-myc immunoprecipitated, Kic1-HA detected; also with lysates taken at 10 min intervals after release from GAL-CDC20 arrest.

These are yes or no findings as the source states them, for the method shown. For part of these data: Binding seen in cells or lysates may run through a third protein. Some binding calls cover weakened binding; strength is not graded here. Sequences can lack the tags named with a protein.

B1: GST-Mob2 (full length) (protein, UniProt P43563 1-287)
chain: MSFFNFKAFGRNSKKNKNQPLNVAQPPAMNTIYSSPHSSNSRLSLRNKHHSPKRHSQTSFPAQKSTPQSQQLTSTTPQSQQQEASERSESQQIMFLSEPFVRTALVKGSFKTIVQLPKYVDLGEWIALNVFEFFTNLNQFYGVVAEYVTPDAYPTMNAGPHTDYLWLDANNRQVSLPASQYIDLALTWINNKVNDKNLFPTKNGLPFPQQFSRDVQRIMVQMFRIFAHIYHHHFDKIVHLSLEAHWNSFFSHFISFAKEFKIIDRKEMAPLLPLIESFEKQGKIIYN
As to B1, the binding entry in assay [1] is on record as “binds”.

B2: Kic1 fused to the GAL4 activation domain (wild type) (enzyme, UniProt P38692 1-1080)
chain: MTTKPQNSKQGLAEGEMDVSSLFKRTEVIGRGKFGVVYKGYNVKTGRVYAIKVLNLDSDSDEVEDVQREIQFLASLKQISNITRYYGSYLKDTSLWIIMEHCAGGSLRSLLRPGKIDEKYIGVIMRELLVALKCIHKDNVIHRDIKAANVLITNEGNVKLCDFGVAAQVNQTSLRRQTMAGTPYWMAPEVIMEGVYYDTKVDIWSLGITTYEIATGNPPYCDVEALRAMQLIIKSKPPRLEDRSYSTSLKEFIALCLDEDPKERLSADDLLKSKFIRAHKATPTSILKELISRYLLFRDKNKNKYKIEGSIPENEPSKPSEAPKPSQNGGGDEAQKSIASNDNEIKRVNEGDVEMKWDFDSLSSSDYIIENNINLDALAEDNNEWATAQHDLFNYAYPDEDSYYFDPTSHNTRPFVYQGTTIGKGYPGTIAQNSTLNAPVTNNYTNSKYPSKMVAGTTNTSGTHTAGPMTSSKRLESKAPKQLLELFEDNEIITAENDVNTEAPKISKSISSLNAGNSSRDDFIPSISNEVNGNINNNKMRPHLPPLSSGNNYYSQSTPALPLLQTKFNKTSKGPPTSGLTTAPTSIEIEIPEELPNSALPTPASADPVLIPSTKARSSTVTAGTPSSSSSIQYKSPSNVPRRLTVSNNRPEHCPSTITNQKLGSAVASNSGISSTPNNSNNYNNNTDSENSRGSSGSNTANSTQMGITNPGNVTKLSTHKASSPSRPLFGVGTSPNRKPAGSPTQNIGHNSTHTNLAPPPTMKPMANSKDNKDILLQPLNSIPSSSTLNTISGNSSNNLTSSNYFSNEKEGSRVNGDFKRNNPNLKLQMPLPTPVVRNKLLDPNTATSQNNNGMPGSAGISTNENINQFGFNTSSASNIPVSMTPISEKHIDFGGKIKRSQSISNRKNSSASEHPLNILGSSVSGNVSGIGNNNVGSNNNSGPNNSVPLSANTGNTTIKANSTTIATSSSAAASTTAPISQQTIPSGTQFNHILSSAATAANSVNSLGFGMCPPPQSLQMEMFLDLESFLPGKQRRVDRKPQVLKELENLLQMFEEGLPCIEHALKEQLISTPIKDNEH
As to B2, the binding result in assay [2] is reported as “binds”.

B3: Kic1 D57A (site A mutant) fused to the GAL4 activation domain (enzyme, UniProt P38692 1-1080)
chain: MTTKPQNSKQGLAEGEMDVSSLFKRTEVIGRGKFGVVYKGYNVKTGRVYAIKVLNLASDSDEVEDVQREIQFLASLKQISNITRYYGSYLKDTSLWIIMEHCAGGSLRSLLRPGKIDEKYIGVIMRELLVALKCIHKDNVIHRDIKAANVLITNEGNVKLCDFGVAAQVNQTSLRRQTMAGTPYWMAPEVIMEGVYYDTKVDIWSLGITTYEIATGNPPYCDVEALRAMQLIIKSKPPRLEDRSYSTSLKEFIALCLDEDPKERLSADDLLKSKFIRAHKATPTSILKELISRYLLFRDKNKNKYKIEGSIPENEPSKPSEAPKPSQNGGGDEAQKSIASNDNEIKRVNEGDVEMKWDFDSLSSSDYIIENNINLDALAEDNNEWATAQHDLFNYAYPDEDSYYFDPTSHNTRPFVYQGTTIGKGYPGTIAQNSTLNAPVTNNYTNSKYPSKMVAGTTNTSGTHTAGPMTSSKRLESKAPKQLLELFEDNEIITAENDVNTEAPKISKSISSLNAGNSSRDDFIPSISNEVNGNINNNKMRPHLPPLSSGNNYYSQSTPALPLLQTKFNKTSKGPPTSGLTTAPTSIEIEIPEELPNSALPTPASADPVLIPSTKARSSTVTAGTPSSSSSIQYKSPSNVPRRLTVSNNRPEHCPSTITNQKLGSAVASNSGISSTPNNSNNYNNNTDSENSRGSSGSNTANSTQMGITNPGNVTKLSTHKASSPSRPLFGVGTSPNRKPAGSPTQNIGHNSTHTNLAPPPTMKPMANSKDNKDILLQPLNSIPSSSTLNTISGNSSNNLTSSNYFSNEKEGSRVNGDFKRNNPNLKLQMPLPTPVVRNKLLDPNTATSQNNNGMPGSAGISTNENINQFGFNTSSASNIPVSMTPISEKHIDFGGKIKRSQSISNRKNSSASEHPLNILGSSVSGNVSGIGNNNVGSNNNSGPNNSVPLSANTGNTTIKANSTTIATSSSAAASTTAPISQQTIPSGTQFNHILSSAATAANSVNSLGFGMCPPPQSLQMEMFLDLESFLPGKQRRVDRKPQVLKELENLLQMFEEGLPCIEHALKEQLISTPIKDNEH
For B3, in assay [2], the binding entry was “no binding”.

B4: HA-tagged Kic1 WDF mutant (kic1-AAA) (enzyme, UniProt P38692 1-1080)
chain: MTTKPQNSKQGLAEGEMDVSSLFKRTEVIGRGKFGVVYKGYNVKTGRVYAIKVLNLDSDSDEVEDVQREIQFLASLKQISNITRYYGSYLKDTSLWIIMEHCAGGSLRSLLRPGKIDEKYIGVIMRELLVALKCIHKDNVIHRDIKAANVLITNEGNVKLCDFGVAAQVNQTSLRRQTMAGTPYWMAPEVIMEGVYYDTKVDIWSLGITTYEIATGNPPYCDVEALRAMQLIIKSKPPRLEDRSYSTSLKEFIALCLDEDPKERLSADDLLKSKFIRAHKATPTSILKELISRYLLFRDKNKNKYKIEGSIPENEPSKPSEAPKPSQNGGGDEAQKSIASNDNEIKRVNEGDVEMKAAADSLSSSDYIIENNINLDALAEDNNEWATAQHDLFNYAYPDEDSYYFDPTSHNTRPFVYQGTTIGKGYPGTIAQNSTLNAPVTNNYTNSKYPSKMVAGTTNTSGTHTAGPMTSSKRLESKAPKQLLELFEDNEIITAENDVNTEAPKISKSISSLNAGNSSRDDFIPSISNEVNGNINNNKMRPHLPPLSSGNNYYSQSTPALPLLQTKFNKTSKGPPTSGLTTAPTSIEIEIPEELPNSALPTPASADPVLIPSTKARSSTVTAGTPSSSSSIQYKSPSNVPRRLTVSNNRPEHCPSTITNQKLGSAVASNSGISSTPNNSNNYNNNTDSENSRGSSGSNTANSTQMGITNPGNVTKLSTHKASSPSRPLFGVGTSPNRKPAGSPTQNIGHNSTHTNLAPPPTMKPMANSKDNKDILLQPLNSIPSSSTLNTISGNSSNNLTSSNYFSNEKEGSRVNGDFKRNNPNLKLQMPLPTPVVRNKLLDPNTATSQNNNGMPGSAGISTNENINQFGFNTSSASNIPVSMTPISEKHIDFGGKIKRSQSISNRKNSSASEHPLNILGSSVSGNVSGIGNNNVGSNNNSGPNNSVPLSANTGNTTIKANSTTIATSSSAAASTTAPISQQTIPSGTQFNHILSSAATAANSVNSLGFGMCPPPQSLQMEMFLDLESFLPGKQRRVDRKPQVLKELENLLQMFEEGLPCIEHALKEQLISTPIKDNEH
On to B4, for which the binding result in assay [3] is listed as “no binding”.

B5: Kic1-3HA (wild type) (enzyme, UniProt P38692 1-1080)
chain: MTTKPQNSKQGLAEGEMDVSSLFKRTEVIGRGKFGVVYKGYNVKTGRVYAIKVLNLDSDSDEVEDVQREIQFLASLKQISNITRYYGSYLKDTSLWIIMEHCAGGSLRSLLRPGKIDEKYIGVIMRELLVALKCIHKDNVIHRDIKAANVLITNEGNVKLCDFGVAAQVNQTSLRRQTMAGTPYWMAPEVIMEGVYYDTKVDIWSLGITTYEIATGNPPYCDVEALRAMQLIIKSKPPRLEDRSYSTSLKEFIALCLDEDPKERLSADDLLKSKFIRAHKATPTSILKELISRYLLFRDKNKNKYKIEGSIPENEPSKPSEAPKPSQNGGGDEAQKSIASNDNEIKRVNEGDVEMKWDFDSLSSSDYIIENNINLDALAEDNNEWATAQHDLFNYAYPDEDSYYFDPTSHNTRPFVYQGTTIGKGYPGTIAQNSTLNAPVTNNYTNSKYPSKMVAGTTNTSGTHTAGPMTSSKRLESKAPKQLLELFEDNEIITAENDVNTEAPKISKSISSLNAGNSSRDDFIPSISNEVNGNINNNKMRPHLPPLSSGNNYYSQSTPALPLLQTKFNKTSKGPPTSGLTTAPTSIEIEIPEELPNSALPTPASADPVLIPSTKARSSTVTAGTPSSSSSIQYKSPSNVPRRLTVSNNRPEHCPSTITNQKLGSAVASNSGISSTPNNSNNYNNNTDSENSRGSSGSNTANSTQMGITNPGNVTKLSTHKASSPSRPLFGVGTSPNRKPAGSPTQNIGHNSTHTNLAPPPTMKPMANSKDNKDILLQPLNSIPSSSTLNTISGNSSNNLTSSNYFSNEKEGSRVNGDFKRNNPNLKLQMPLPTPVVRNKLLDPNTATSQNNNGMPGSAGISTNENINQFGFNTSSASNIPVSMTPISEKHIDFGGKIKRSQSISNRKNSSASEHPLNILGSSVSGNVSGIGNNNVGSNNNSGPNNSVPLSANTGNTTIKANSTTIATSSSAAASTTAPISQQTIPSGTQFNHILSSAATAANSVNSLGFGMCPPPQSLQMEMFLDLESFLPGKQRRVDRKPQVLKELENLLQMFEEGLPCIEHALKEQLISTPIKDNEH
As for B5, the binding entry in assay [4] and in assay [3] was “binds” in each case.

For the origin of these results see publication PMC3804511.
